Results reported in PubChem BioAssay AID463173 (ICCB-Longwood Screening Facility, Harvard Medical School, 2010).
About 4,300 (8.3%) of roughly 52,000 compounds were called active. No stated cut-off is given here; in the data, active means survival mostly below about 52% (no sharp cut-off); inactive means mostly above about 56%. The list shows a part of the results.

Tested on: DeltatarO mutant
Assay: S. aureus survival, RN4220 and DeltatarO strains – OD600, teichoic acid synthesis inhibitors, primary screen (AID 463173)
Details: S. aureus RN4220 wild type/DeltatarO growth, OD600, 18 h, hits give low values, screened at 18.75 µg/mL (by protocol)

SMILES	survival
COc1cccc(CN2C(=O)C3(SCC(=O)N3c3ccc(C(C)C)cc3)c3ccccc32)c1 (stereo not given)	inactive: 55%
Cn1c(SCc2ccccc2Cl)nc2c([nH]c3ccccc32)c1=O	inactive: 65%
COc1cccc(CNS(=O)(=O)c2ccc(-c3cc(C(F)(F)F)on3)s2)c1	inactive: 94%
O=C(c1ccc2c(c1)OCCO2)N(Cc1cccnc1)c1nc2c(F)cc(F)cc2s1	inactive: 88%
CCOC(=O)c1ccc(N2C(=O)Cc3cc(OCC)c(OCC)cc3C2c2ccccc2)cc1 (stereo not given)	inactive: 117%
CCOc1ccc(NS(=O)(=O)c2ccc3[nH]cc(C(=O)N4CCCCCC4)c(=O)c3c2)cc1	inactive: 113%
COc1ccc(N(CC(=O)Nc2cc(Cl)ccc2C)S(=O)(=O)c2c(C)noc2C)cc1	inactive: 51%
CCOc1ccc(C(=O)Nc2ccc3oc(-c4ccc(Br)cc4)nc3c2)cc1	inactive: 68%
Cc1ccc(NC(=O)C2CCC(CNS(=O)(=O)c3cccc4nsnc34)CC2)c(C)c1 (stereo not given)	inactive: 95%
COc1ccc(-c2nc3sc(CCNC(=O)C(=O)Nc4ccc(C)cc4C)c(C)n3n2)cc1	inactive: 71%
O=C(Cn1c(=O)oc2cc(S(=O)(=O)N3CCCC3)ccc21)Nc1ccc(OC(F)(F)F)cc1	inactive: 87%
Cc1nc2ccc(S(=O)(=O)N(CC(=O)Nc3cccc(C)c3C)Cc3ccccc3)cc2s1	inactive: 89%
Cc1ccc(C)c(Cn2c(C(C)NC(=O)c3ccccc3)nc3ccccc32)c1 (stereo not given)	inactive: 88%
O=C(CCn1cnc2onc(-c3ccc(F)cc3)c2c1=O)N1CCN(c2ccccc2)CC1	inactive: 60%
COc1cccc(OCc2nc3ccccc3n2C)c1	inactive: 57%
O=C(NCc1noc2ccccc12)N1CCN(c2ccccc2F)CC1	inactive: 40%
O=C(Cn1c(=O)n(Cc2ccc(F)cc2)c(=O)c2sc3ccccc3c21)NCc1ccccc1	inactive: 86%
Cc1ccc(OCCSc2nc3ccccc3n2CC(=O)N2CCCCC2)c(C)c1	inactive: 51%
CCOc1ccc(C(c2c(C)[nH]n(-c3ccccc3)c2=O)c2c(C)[nH]n(-c3ccccc3)c2=O)cc1OC	inactive: 70%
CCN(CC)CCNC(=O)c1ccc2c(=O)n3nc(Nc4cccc(Cl)c4C)sc3nc2c1	inactive: 107%
CCc1ccc(-c2cn3c(n2)sc2cc(C(=O)NCCCc4ccccc4)ccc23)cc1	inactive: 70%
CCOc1cccc2cc(-c3nc(-c4ccc(Cl)cc4)c(C)s3)c(=O)oc12	inactive: 105%
COc1ccc(-c2ccc(NS(=O)(=O)c3ccccc3Cl)cc2)nn1	inactive: 75%

SMILES	survival
Cc1nc(N2CCOCC2)c2c(C(=O)N3CCN(c4ccc(Cl)cc4)CC3)c(C)oc2n1	inactive: 92%
COc1ccc(Cn2c(CCC(=O)Nc3cccc(Cl)c3)nc3cccnc32)cc1	inactive: 97%
CCOC(=O)c1ccc(NC(=O)Cn2cc(S(=O)(=O)Cc3ccccc3F)c3ccccc32)cc1	inactive: 73%
CCCOc1ccccc1C(=O)Nc1ccc(-c2nc3ccc(C)cc3s2)cc1	active: 29%
Cc1cccc(Nc2cc(C)nc3nc(Cc4ccc(Cl)cc4)nn23)c1	active: 36%
Cc1cc(-c2ccccc2)nc2cc(C(=O)Nc3cc(C(F)(F)F)ccc3Cl)nn12	inactive: 58%
COc1ccc(CNC(=O)c2ccc3c(Cl)c4c(nc3c2)CCCC4)c(OC)c1	inactive: 92%
Cc1nc(SCC(=O)Nc2ccc(Cl)cc2C(F)(F)F)[nH]c(=O)c1Cc1ccccc1	inactive: 68%
Cc1ccc(Cn2cc3c(n2)-c2c(oc(C(=O)Nc4ccc(F)cc4F)c2C)CC3)cc1	inactive: 85%
CCOc1ccccc1CNC(=O)c1ccc2nc(CCc3ccccc3)oc2c1	inactive: 83%
CCc1nn2c(=O)cc(COC(=O)c3cccs3)nc2s1	inactive: 83%
COC(=O)c1ccc(CN(Cc2ccc(OC)c(OC)c2)S(=O)(=O)c2ccc(F)c(C(=O)Nc3cc(C)ccc3C)c2)cc1	inactive: 94%
CCOc1ccccc1NC(=O)CN1Cc2ccccc2C1=O	inactive: 96%
N#Cc1nc(/C=C/c2ccc(F)cc2)oc1N1CCCCC1	inactive: 93%
CC(=O)N/N=C/c1cc(C(C)C)cc(/C=N/NC(C)=O)c1O	inactive: 98%
Cc1cccc(C(=O)NCC(=O)OCc2cc(=O)n3nc(C)sc3n2)c1	inactive: 82%
O=C(NCc1ccccc1)c1ccc(Cn2c(=O)c3cccn3c3cccnc32)cc1	inactive: 108%
CCOC(=O)c1c(-c2ccccc2)csc1NC(=O)c1cc(-c2cccc(Cl)c2)on1	inactive: 59%
Cc1ccc(C)c(N2CCN(S(=O)(=O)c3ccc4c(c3)n(C)c(=O)c(=O)n4C)CC2)c1	inactive: 76%
COc1cc(OC)c(NC(=O)CSCc2nc(-c3ccc(OC)c(OC)c3)no2)cc1Cl	inactive: 96%
CC(=O)c1cccc(NC(=O)c2ccc3c(c2)c(C)c(C)n3Cc2ccc(Cl)cc2)c1	inactive: 82%
CN(Cc1ccccc1)S(=O)(=O)c1ccc(F)c(C(=O)Nc2cc(Cl)cc(Cl)c2)c1	inactive: 87%
